Test results as given in the supplement of paper PMC4166925.
± gives the standard deviation of the averaged measurements. The full ranking holds about 33,000 sequences; the median of “E-score (dimensionless, -0.5 to 0.5)” is about -0.049, and the highest 2% start at about 0.37. This is one part of the list.

What follows are sequences tested on T1, PmTbr T-box DNA-binding domain (GST fusion) (assay: PBM E-score of 8-mer (E-score (dimensionless, -0.5 to 0.5)); Tbr is Tbrain of the sea star Patiria miniata (Pm) or the sea urchin Strongylocentrotus purpuratus (Sp); higher = stronger binding preference; most listed sequences are background and not binding sites). Details: the construct has about 5 more residues each side.
T1 sequence: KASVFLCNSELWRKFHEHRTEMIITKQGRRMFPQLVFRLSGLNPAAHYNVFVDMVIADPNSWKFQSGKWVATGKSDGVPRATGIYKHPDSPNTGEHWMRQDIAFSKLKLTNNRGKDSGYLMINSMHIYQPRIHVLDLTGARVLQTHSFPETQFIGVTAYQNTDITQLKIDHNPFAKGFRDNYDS
Outline: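 Each ungapped 8-mer received an enrichment E-score from the Universal PBM Analysis Suite, averaged over duplicate arrays. The proteins were Tbr T-box DNA-binding domains, covering the whole T-box plus about five flanking residues, fused to GST and expressed in BL21 E. coli at 20 °C before glutathione affinity purification. Universal Agilent oligonucleotide arrays were made double-stranded by primer extension and incubated with 200 nM protein in PBS (pH 7.5). The arrays were then scanned and quantified, and every 8-mer was scored from probe intensities.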

Row | Sequence | PBM E-score of 8-mer
1 | AACGCAGG | -0.144 ± 0.0058
2 | CCGGTATC | -0.105 ± 0.053
3 | ACCCGGTG | 0.175 ± 0.093
4 | CAAATGGC | -0.124 ± 0.039
5 | ACGATGAA | -0.106 ± 0.043
6 | CGGTCTGC | -0.0507 ± 0.024
7 | AATTCCAT | -0.0087 ± 0.00049
8 | CGACGAAA | 0.217 ± 0.023
9 | GATAACCC | 0.0272 ± 0.031
10 | ATTGTCCC | -0.139 ± 0.025
11 | GACTTGGA | -0.167 ± 0.064
12 | AGGGTTAA | -0.0933 ± 0.0027
13 | CTGAGGAA | -0.0661 ± 0.04
14 | CTGCTATC | -0.00783 ± 0.059
15 | GGTCTTGA | -0.102 ± 0.071
16 | AATTCGGG | -0.0985 ± 0.03
17 | AAAGCCAG | -0.229 ± 0.088
18 | AAAACGCA | -0.0394 ± 0.059
19 | ACATTTGC | 0.112 ± 0.057
20 | ACAGAATG | -0.0678 ± 0.015
21 | GGCCGCTA | 0.0915 ± 0.073
22 | ACAACCCG | 0.146 ± 0.069

Row | Sequence | PBM E-score of 8-mer
23 | AATGGACC | -0.264 ± 0.02
24 | ATAGTATC | -0.163 ± 0.1
25 | AGCAAGTA | 0.114 ± 0.04
26 | ACCTGATG | 0.0342 ± 0.045
27 | GAGAATAC | -0.0102 ± 0.065
28 | CATGACAA | 0.204 ± 0.047
29 | CAGCCAGG | -0.0679 ± 0.026
30 | ACGCCATA | -0.0707 ± 0.035
31 | CCTCTAGC | 0.133 ± 0.0077
32 | CCGCATGA | -0.193 ± 0.018
33 | CCCCGTCC | -0.279 ± 0.047
34 | AAGCCGCG | 0.0627 ± 0.058
35 | AACACGTG | 0.38 ± 0.016
36 | ACTGCCAG | -0.133 ± 0.038
37 | GGTCTTAA | -0.0609 ± 0.12
38 | ATACCCAT | -0.162 ± 0.043
39 | CTTTGTAC | -0.116 ± 0.076
40 | TCTTGAAA | -0.0736 ± 0.019
41 | CTAGGCCA | -0.046 ± 0.0095
42 | ACACAAGC | 0.0445 ± 0.012
43 | TGACTTAA | -0.12 ± 0.035
44 | AAATTCAA | -0.0843 ± 0.17

Row | Sequence | PBM E-score of 8-mer
45 | ACACTACT | 0.15 ± 0.013
46 | CGAATCCC | -0.0282 ± 0.063
47 | CATCCTAA | -0.167 ± 0.006
48 | AATTTGGG | -0.163 ± 0.0085
49 | AGTGCCTA | -0.0341 ± 0.021
50 | ACTGCGAG | 0.179 ± 0.04
51 | AGAGCGCA | -0.0204 ± 0.075
52 | AACTCGAC | 0.149 ± 0.017
53 | ATCCCAAT | -0.136 ± 0.031
54 | AAGAGGGT | -0.06 ± 0.0015
55 | AGTCAATC | -0.182 ± 0.073
56 | CTAGCATC | 0.0514 ± 0.036
57 | ACAACTGT | 0.222 ± 0.018
58 | CGGGACGC | -0.0718 ± 0.16
59 | AAGAGCTC | -0.232 ± 0.038
60 | ACCCGATC | 0.00349 ± 0.03
61 | AAGTGCAG | 0.111 ± 0.019
62 | CACCTAGG | 0.436 ± 0.01
63 | ATCTCCTA | -0.279 ± 0.035
64 | CTGAGCCC | -0.197 ± 0.048
65 | CTCTCTAA | -0.0792 ± 0.076
66 | ACTACACC | 0.224 ± 0.059

Row | Sequence | PBM E-score of 8-mer
67 | AGGTCTCC | -0.227 ± 0.008
68 | CAATAGAA | -0.0235 ± 0.022
69 | ACTACGGG | -0.297 ± 0.033
70 | ACGTGCAC | -0.0259 ± 0.088
71 | GCCTGAGC | -0.0832 ± 0.032
72 | ATGGGGGG | -0.0992 ± 0.034
73 | GTGGCAAA | 0.333 ± 0.05
74 | GAGCATTA | -0.0505 ± 0.052
75 | AGGAACGC | -0.0922 ± 0.022
76 | CTTTCGGA | -0.0447 ± 0.021
77 | AACTTTAG | -0.175 ± 0.026
78 | AGGCGGAC | -0.152 ± 0.043
79 | CGACATGC | 0.0443 ± 0.046
80 | AGTTACGA | -0.0212 ± 0.0068
81 | AATACACG | 0.0556 ± 0.074
82 | CGAGGCGA | 0.26 ± 0.041
83 | AGCCCTCC | -0.16 ± 0.029
84 | GCTGAAGC | -0.0971 ± 0.0085
85 | AAGCTCAA | -0.193 ± 0.041
86 | CTCTCTTC | -0.155 ± 0.018
